Experimental data reported in the supplement of paper PMC12217912.
The list shows a part of the results. The full chains were built here from the parent and the listed change. Inactive controls read about 0.05.

B1: TEV protease; numbered along this chain (parent)
chain: MGESLFKGPRDYNPISSSICHLTNESDGHTTSLYGIGFGPFIITNKHLFRRNNGTLVVQSLHGVFKVKDTTTLQQHLVDGRDMIIIRMPKDFPPFPQKLKFREPQREERICLVTTNFQTKSMSSMVSDTSCTFPSGDGIFWKHWIQTKDGQCGSPLVSTRDGFIVGIHSASNFTNTNNYFTSVPKNFMELLTNQEAQQWVSGWRLNADSVLWGGHKVFMVKPEEPFQPVKEATQL

Variants of: B1
Test: raw area under fraction-flipped curve 0-4 h after induction (AUC4h, not background-subtracted), DNA-recorder readout of cleavage of the substrate (dimensionless); higher = more cleavage of the substrate by the protease variant
Conditions: temperature: 34 °C; time window: 0-4 h after rhamnose induction
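Further: Bxb1 expression induced with 0.2% (w/v) L-rhamnose at OD600 near 0.5, cultures sampled hourly, flipped fraction per protease–substrate barcode pair counted by paired-end Illumina sequencing.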

| Variant | area with substrate ENAYFQS | area with substrate ENCYFQS | area with substrate ENDYFQS | area with substrate ENEYFQS | area with substrate ENFYFQS | area with substrate ENGYFQS | area with substrate ENHYFQS | area with substrate ENIYFQS | area with substrate ENKYFQS | area with substrate ENNYFQS | area with substrate ENPYFQS | area with substrate ENQYFQS | area with substrate ENRYFQS | area with substrate ENSYFQS | area with substrate ENTYFQS | area with substrate ENVYFQS | area with substrate ENWYFQS | area with substrate ENYYFQS | area with substrate ENMYFQS |
| --- | --- | --- | --- | --- | --- | --- | --- | --- | --- | --- | --- | --- | --- | --- | --- | --- | --- | --- | --- |
| I164D | 0.045 | 0.0607 | 0.0564 | 0.0603 | 0.0689 | 0.0551 | 0.0415 | 0.0612 | 0.0554 | 0.0576 | 0.0528 | 0.0565 | 0.0513 | 0.0637 | 0.0633 | 0.0544 | 0.0469 | 0.0651 |  |
| L191A | 0.0614 | 0.0581 | 0.0609 |  | 0.044 |  | 0.0554 | 0.0768 | 0.0589 | 0.0143 | 0.0582 | 0.0364 | 0.0732 | 0.0567 |  |  |  | 0.0691 |  |
| L191K | 0.0574 | 0.0492 | 0.0596 | 0.05 | 0.0583 | 0.0502 | 0.0546 | 0.0607 |  | 0.0528 | 0.0483 | 0.0521 | 0.0635 | 0.0524 | 0.0496 |  | 0.0493 | 0.0401 | 0.062 |
| L191F | 0.0595 | 0.0627 | 0.055 | 0.0642 | 0.0652 | 0.0765 | 0.0692 | 0.0982 | 0.066 | 0.057 | 0.0848 | 0.066 | 0.0621 | 0.0626 | 0.0601 | 0.0663 | 0.0708 | 0.0458 |  |
| D161A | 0.0567 | 0.0593 | 0.0611 | 0.0518 |  | 0.0534 | 0.0587 |  |  |  | 0.0652 | 0.0561 | 0.061 | 0.0569 |  | 0.0465 |  |  | 0.0569 |
| G166D | 0.0498 | 0.055 | 0.0538 | 0.0657 | 0.0568 | 0.0525 |  | 0.0412 | 0.0452 | 0.0422 | 0.059 | 0.0501 | 0.0469 | 0.0499 | 0.0459 | 0.0484 | 0.004 | 0.0431 | 0.0586 |
| G166A | 0.0341 | 0.049 | 0.0425 | 0.05 | 0.0419 | 0.0557 | 0.0463 | 0.0523 | 0.0571 | 0.0499 | 0.0467 | 0.03 |  | 0.0515 |  | 0.0461 | 0.0352 |  |  |
| G166M | 0.0463 | 0.0289 |  | 0.0635 | 0.0457 |  | 0.0436 |  |  |  |  | 0.0377 |  | 0.0543 | 0.0565 | 0.0582 | 0.0359 |  | 0.0353 |
| R204F | 0.0706 | 0.0543 | 0.0572 | 0.0637 |  |  | 0.0531 | 0.117 | 0.0578 | 0.0577 | 0.0666 | 0.0556 |  | 0.056 | 0.0565 | 0.102 | 0.0551 | 0.0409 | 0.0808 |
| R204L | 0.0563 | 0.0684 | 0.0494 | 0.0616 | 0.0588 | 0.0581 | 0.065 |  | 0.0864 | 0.0638 | 0.0516 | 0.0604 | 0.0571 | 0.0608 | 0.0631 | 0.0643 | 0.0547 |  | 0.061 |
| W203N | 0.0596 | 0.0697 | 0.0641 | 0.0573 | 0.0412 | 0.0523 | 0.0705 | 0.06 |  |  |  | 0.0702 | 0.0581 | 0.0678 | 0.0538 | 0.0624 |  | 0.0575 |  |
